Among the data in article PMC2749821 are binding values, retold here.

Sequences of proteins named here, by UniProt entry; tags and fusion partners are left off. A change or cut given only in a name is not applied to a line headed by its entry. Residues count along the entry.
UniProt P18075, residues 293-431: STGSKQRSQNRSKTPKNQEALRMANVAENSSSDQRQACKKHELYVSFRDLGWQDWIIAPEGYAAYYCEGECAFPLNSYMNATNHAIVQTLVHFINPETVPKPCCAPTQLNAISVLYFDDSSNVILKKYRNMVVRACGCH
UniProt P36896, residues 24-126: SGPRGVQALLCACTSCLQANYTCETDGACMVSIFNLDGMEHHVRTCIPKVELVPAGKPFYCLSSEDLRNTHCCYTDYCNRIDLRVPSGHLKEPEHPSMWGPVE

Results are given in words; binding and its absence hold for the method and conditions named. Some binding calls cover weakened binding; strength is not graded here.

The target in experiment [1] is bone morphogenetic protein 7 (BMP7), human (human) (UniProt P18075). Nature of the experiment: SPR; Biacore 2000; receptor ectodomains as analyte over biotinylated ligands on streptavidin-coated CM5 chips; HBS500, 25°C, 10 μl/min; apparent affinities, 1:1 interaction; both purified.
For experiment [2], the target named is activin receptor type II (ActR-II) ectodomain, human (human) (UniProt P27037). In words: SPR; ligands as analyte over immobilized receptor ectodomains, 0.36% CHAPS added to HBS500 buffer; both purified.
In experiment [3] the target is activin receptor type IB (ActR-IB) ectodomain, human (human) (UniProt P36896). Nature of the experiment: SPR; Biacore 2000; ligands as analyte over biotinylated receptor ectodomains (about 200 RU) on streptavidin-coated CM5 chips; HBS500 (10 mM HEPES pH 7.4, 500 mM NaCl, 3.4 mM EDTA, 0.005% P20), 25°C, 10 μl/min; apparent affinities, 1:2 interaction with avidity; both purified.

The target of experiment [4] is T1, activin receptor type I (ActR-I) ectodomain, human (human) (UniProt Q04771).
T1 sequence (chain, N-biotinylated (sulfo-NHS-LC-biotin) where immobilised): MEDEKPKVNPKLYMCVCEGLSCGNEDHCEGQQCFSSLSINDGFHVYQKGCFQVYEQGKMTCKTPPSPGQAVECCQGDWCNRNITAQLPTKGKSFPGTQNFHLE
The description is as above.

With “activin receptor type IB (ActR-IB) ectodomain, human (from UniProt P36896 24-126)”, in experiment [1], the binding result is given as “no binding”.

As to “bone morphogenetic protein 7 (BMP7), human (from UniProt P18075 293-431) (ligand)”, the binding entry was “binds” in experiment [2] and “no binding (tested: ligand concentrations up to 120 nM)” in experiment [3].

“growth and differentiation factor 5 (GDF5), mature part (from UniProt P43026 387-501) (ligand)”: the binding entry in experiment [4] and in experiment [3] was “no binding (tested: ligand concentrations up to 120 nM)” each time.
